The values that follow come from PubChem BioAssay AID360 (National Center for Advancing Translational Sciences (NCATS), 2006).

Hit rate of the full screen: of about 48,000 compounds, about 550 (1.1%) were called active. Not shown: some 4% with an inconclusive outcome. Rule as the data show it: active = potency below about 15 µM; inconclusive = mostly about 16 µM to 33 µM; inactive = weaker than that. This is one part of the list. Some results are limits rather than exact numbers.
Potency is read from the fitted curve at half-maximal effect.

This test deals with Lysosomal acid glucosylceramidase (Homo sapiens) (UniProt P04062). Put plainly: Glucocerebrosidase.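 Also: the screen sought inhibitors.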 To be noted: purified enzyme, resorufin glucoside fluorescence (screen aimed at inhibitors), 20 min. The gist of the method: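 Compounds titrated against 0.2 nM normal enzyme, 30 uM resorufin beta-D-glucopyranoside substrate, citrate/phosphate buffer with taurocholate and tween-20, pH 5.9. Reaction ran 20 min at room temperature; fluorescence (Ex 548/Em 600) gave AC50.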
Chain of UniProt P04062 (P04062 whole entry, looked up): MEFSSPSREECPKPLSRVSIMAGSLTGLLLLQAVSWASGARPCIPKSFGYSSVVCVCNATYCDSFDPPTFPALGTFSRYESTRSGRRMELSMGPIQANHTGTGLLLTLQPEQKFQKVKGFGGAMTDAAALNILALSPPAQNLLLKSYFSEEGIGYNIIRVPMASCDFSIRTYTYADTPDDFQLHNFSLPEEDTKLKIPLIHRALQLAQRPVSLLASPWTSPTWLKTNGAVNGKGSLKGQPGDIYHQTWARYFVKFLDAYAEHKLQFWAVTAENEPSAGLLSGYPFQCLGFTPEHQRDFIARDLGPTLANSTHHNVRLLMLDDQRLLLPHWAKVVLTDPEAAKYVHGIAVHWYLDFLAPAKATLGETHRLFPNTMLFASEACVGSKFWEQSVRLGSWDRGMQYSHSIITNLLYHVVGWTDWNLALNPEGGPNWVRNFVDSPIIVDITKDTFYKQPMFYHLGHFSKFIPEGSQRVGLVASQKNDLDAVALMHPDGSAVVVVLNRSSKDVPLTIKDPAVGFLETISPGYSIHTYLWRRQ
Turning to `O=C(CCCCCN1C(=O)CCC1=O)Nc1ccc2c(c1)OCCO2`, the Potency is inactive: > 76.9 µM.
For the compound `CN(Cc1cccs1)CC(O)COCc1ccco1` (stereo not given), the Potency is inactive: > 76.9 µM.
Next, `COc1ccc(F)cc1S(=O)(=O)N1CCN(Cc2ccc3c(c2)OCO3)CC1`: inactive: > 76.9 µM.
With `Cc1ccc(NC(=O)CS(=O)CC(=O)Nc2ccc3c(c2)OCO3)cc1Cl` (stereo not given), the Potency was inactive: > 76.9 µM.
Next, `Cc1nn(-c2nc3ccccc3s2)c(N)c1-c1ccccc1`: inactive: > 76.9 µM; `O=C(C1CCCN(S(=O)(=O)c2ccccc2)C1)N1CCCc2ccccc21` (stereo not given): inactive: > 76.9 µM; `COc1cc(OC)nc(NC(=O)CN2CCN(c3ccc(F)cc3)CC2)n1`: inactive: > 76.9 µM.
With `COc1ccc(-c2nnc(NC(=O)c3ccc(S(=O)(=O)N4COCC4(C)C)cc3)o2)cc1` the figure was inactive: > 76.9 µM; with `COc1ccc(CNC(=O)CCCNS(=O)(=O)c2cccc3nonc23)cc1`, inactive: > 76.9 µM.
With `O=C(CCC(=O)N(CC(=O)NC1CCCC1)Cc1ccc2c(c1)OCO2)Nc1ccccn1`, the Potency is inactive: > 76.9 µM.
For the compound `O=C(Cc1cccs1)Nc1cccc(C(=O)Nc2ccco2)c1`, the Potency was inactive: > 76.9 µM.
As to `Cc1ccccc1OCC(O)Cn1c(NCc2ccco2)nc2c1c(=O)n(C)c(=O)n2C` (stereo not given), the Potency is inactive: > 76.9 µM.
Consider `O=C(COc1c(F)c(F)cc(F)c1F)NC(=O)NC1CCCC1`, for which the Potency was inactive: > 76.9 µM.
Take `O=C(CCn1c(=O)oc2ccccc21)Nc1ccon1`: the Potency was inactive: > 76.9 µM.
Consider `Cc1cc(Cl)c(S(=O)(=O)NCc2cccnc2)cc1OCC(N)=O`, for which the Potency was inactive: > 76.9 µM.
Next, `CCN1C(=O)CC(n2c(C)nc3ccccc32)C1=O` (stereo not given): inactive: > 76.9 µM.
With `COc1cccc(-c2noc(C3CCCN(S(=O)(=O)c4cccc(Cl)c4C)C3)n2)c1` (stereo not given) the figure was inactive: > 76.9 µM; with `O=C(O)Cn1ccnc1`, inactive: > 76.9 µM.
With `O=S1(=O)Nc2c(ccc3cccnc23)-c2ccccc21` the figure was inactive: > 76.9 µM.
Regarding `CCOC(=O)c1ccc(NC(=O)C2CC2)cc1`, the Potency is inactive: > 76.9 µM.
For the compound `Cc1n[nH]c(=O)nc1NCC1CCCO1` (stereo not given), the Potency was inactive: > 76.9 µM.
On to `COc1cc2c(cc1NC(=O)CN(C)Cc1nc3ccccc3c(=O)[nH]1)oc1ccccc12`, for which the Potency entry was “inactive”.
Take `CN(C)C(=O)c1ccc(Oc2ccc(C(=O)N(C)C)cc2)cc1`: the Potency was inactive: > 76.9 µM.
For the compound `O=C(Cc1cn2ccsc2n1)OCc1nc2ccccc2s1`, the Potency was inactive: > 76.9 µM.
In the case of `CCN(CC)C(=O)CSc1nnc2sc3ccccc3n12`, the Potency was inactive: > 76.9 µM.
With `CCCCNc1nc2c(c(=O)[nH]c(=O)n2C)n1CCOc1ccccc1` the figure was inactive: > 76.9 µM; with `Cc1ccccc1NC(=O)N1CCCC(c2nc(-c3ccc(C(C)C)cc3)no2)C1` (stereo not given), inactive: > 76.9 µM; with `CC(C)[C@H](NC(=O)NCc1cccs1)C(=O)O`, inactive: > 76.9 µM.
Consider `COc1ccc(N2CCn3c2nc2c3c(=O)n(CCc3ccccc3)c(=O)n2C)c(OC)c1`, for which the Potency was inactive: > 76.9 µM.
For `Cn1c(=O)[nH]c(=O)c2c1nc(N1CCCCC1)n2CCOc1ccccc1`, the Potency is inactive: > 76.9 µM.
Turning to `COc1cc2cc(C(c3nnnn3C3CCCC3)N(C)C3CCCCC3)c(=O)[nH]c2cc1OC` (stereo not given), the Potency was inactive: > 76.9 µM.
With `CCOC(=O)c1c(CN2CCCCC2)n(C)c2ccc(OC)c(S(=O)(=O)c3ccccc3)c12` the figure was inactive: > 76.9 µM; with `CC(=O)n1nc(-c2ccccc2)nc1NCc1ccc(F)cc1`, inactive: > 76.9 µM; with `Cc1cc(C)c(NC(=O)C2CSCCS2)c(C)c1` (stereo not given), inactive: > 76.9 µM.
`Cc1nc(C)n(C(=O)N(c2ccccc2)c2ccccc2)n1`: the Potency is inactive: > 76.9 µM.
Take `CCC(=O)c1cc2c(cc1NC(=O)C(C)C)OCCO2`: the Potency is inactive: > 76.9 µM.
With `Cc1noc(NS(=O)(=O)c2ccc(NC(=O)CSc3nc4ccccc4[nH]3)cc2)c1C` the entry was “inactive”.
Consider `Cc1cnc(C)c(N2CCC(C(=O)NCc3cccs3)CC2)n1`, for which the Potency is inactive: > 76.9 µM.
With `CC(C)CCn1c(NCCN(C)C)nc2c1c(=O)[nH]c(=O)n2C` the figure was inactive: > 76.9 µM; with `O=C(c1cccs1)N1CCN(C(=O)N2CCOCC2)CC1`, inactive: > 76.9 µM; with `O=C(Cc1ccccc1)Nc1ccc(CN2CCOCC2)cc1`, inactive: > 76.9 µM.
Regarding `CC(=O)N1c2c(cc(Br)cc2S(=O)(=O)NCc2cccnc2)CC1C` (stereo not given), the Potency is inactive: > 76.9 µM.
With `CCOC(=O)N1CCC(NC(=O)C(NC(=O)C2CCCCC2)C(C)C)CC1` (stereo not given), the Potency was inactive: > 76.9 µM.
For the compound `Cc1cc(C)c(C)c(S(=O)(=O)NCC(=O)N2CCCC2)c1C`, the Potency was inactive: > 76.9 µM.
`O=C(CSc1nc2ccccc2o1)N1CCN(C(=O)c2ccco2)CC1`: the Potency is inactive: > 76.9 µM.
Consider `CCCCCC(=O)Nc1ccc2oc(-c3cccnc3)nc2c1`, for which the Potency was inactive: > 76.9 µM.
For the compound `CCOC(=O)c1cnc(SCC(=O)Nc2ccc(NC(=O)CC)c(OC)c2)nc1N`, the Potency is inactive: > 76.9 µM.
In the case of `Cc1ccc(C(=O)CSc2nnc(COc3cc(C)cc(C)c3)o2)cc1`, the Potency was inactive: > 76.9 µM.
Consider `CC(C)(C)c1nnc2sc(SCC(=O)c3cccs3)nn2c1=O`, for which the Potency is inactive: > 76.9 µM.
Regarding `c1ccc(Cn2nnc3c(Nc4ccc5c(c4)OCO5)nc(C4CC4)nc32)cc1`, the Potency was inactive: > 76.9 µM.
Regarding `O=C(CSc1nccc(=O)[nH]1)N1c2ccccc2CCc2ccccc21`, the Potency was inactive: > 76.9 µM.
With `COc1ccc(C2C3=C(CCCC3=O)Nc3nc(C(F)(F)F)nn32)c(OC)c1OC` (stereo not given) the figure was inactive: > 76.9 µM; with `O=C(CSc1ncn[nH]1)c1ccc2c(c1)OCO2`, inactive: > 76.9 µM.
With `CCn1c(Cc2cccn2C)nnc1SCC(=O)c1ccc(C)cc1` the figure was inactive: > 76.9 µM; with `COc1ccc(N2CCCn3c2nc2c3c(=O)n(Cc3ccc(F)cc3)c(=O)n2C)c(OC)c1`, inactive: > 76.9 µM.
As for `CCc1cccc(C)c1NC(=O)CSc1nc2ccccc2n1CC(=O)N(C)C`, the Potency is inactive: > 76.9 µM.
`COc1ccc(C(=O)CSc2nnc(Cc3ccccc3)o2)cc1`: the Potency was inactive: > 76.9 µM.
With `CCC(=O)Nc1nc(OC)cc(OC)n1` the figure was inactive: > 76.9 µM; with `CCCS(=O)(=O)N1CCN(Cc2ccc(OCc3ccccc3)c(OC)c2)CC1`, inactive: > 76.9 µM; with `O=C(COC(=O)c1ccccc1O)Nc1ccc(OC(F)F)cc1`, inactive: > 76.9 µM.
Take `COC(=O)c1nnn(-c2nonc2N)c1CSc1nc2ccccc2s1`: the Potency is inactive: > 76.9 µM.
As to `CCCCOC(=O)CCn1c(=S)oc2ccccc21`, the Potency is inactive: > 76.9 µM.
For the compound `COc1ccc(NC(=O)CN2CCN(CC(=O)Nc3ccc4c(c3)OCO4)CC2)cc1`, the Potency is inactive: > 76.9 µM.
Next, `CCOC(=O)N1CCC(c2nc3ccccc3[nH]2)CC1`: inactive: > 76.9 µM.
Regarding `Cc1c(C(=O)Nc2ccc(N3CCOCC3)cc2)oc2ccccc12`, the Potency is inactive: > 76.9 µM.
As to `CCCOc1ccc(N2CC(C(=O)Nc3ncccc3C)CC2=O)cc1` (stereo not given), the Potency is inactive: > 76.9 µM.
On to `O=C(Cn1c(=O)oc2cc(S(=O)(=O)N3CCCC3)ccc21)Nc1ccc(C(F)(F)F)cc1`, for which the Potency was inactive: > 76.9 µM.
For `N#Cc1ccccc1OCC(=O)OCC(=O)c1ccc2c(c1)NC(=O)CO2`, the Potency is inactive: > 76.9 µM.
In the case of `CC1=CC2=NC(=O)CC(C)(C(=O)N(CC(=O)NC(C)(C)C)C3CCCC3)N2C=C1` (stereo not given), the Potency is inactive: > 76.9 µM.
Turning to `O=C(NC1CCCCC1)c1ccc(CS(=O)(=O)Cc2ccccc2F)o1`, the Potency is inactive: > 76.9 µM.
For `CCN=C1SC(CC(=O)Nc2ccccc2)C(=O)N1CC` (stereo not given), the Potency was inactive: > 76.9 µM.
As for `Cc1nc2ncnn2c(C)c1CCC(=O)N1CCN(C(=O)c2ccco2)CC1`, the Potency is inactive: > 76.9 µM.
Regarding `CCOC(=O)C1=C(C)NC(C)=C(C(=O)OCC)C1C(=O)OCC(=O)N1CCC(C)CC1`, the Potency was inactive: > 76.9 µM.
Consider `NC(=O)CSc1nc(-c2ccccc2Cl)ns1`, for which the Potency was inactive: > 76.9 µM.
Turning to `c1ccc2nc(N3CCOCC3)c(N3CCOCC3)nc2c1`, the Potency is inactive: > 76.9 µM.
As to `Cc1ccc(C2CC(C(F)(F)F)n3nc(C(=O)NCC4CCCO4)cc3N2)cc1` (stereo not given), the Potency is inactive: > 76.9 µM.
Next, `CC(=O)NC(NC(C)=O)c1ccc(Br)cc1`: inactive: > 76.9 µM.
For `CC(C)(C)n1nnnc1C(c1ccccc1)N1CCc2ccccc2C1` (stereo not given), the Potency was inactive: > 76.9 µM.
With `O=C(OCc1nc2ccccc2c(=O)[nH]1)c1cccs1` the figure was inactive: > 76.9 µM; with `Cc1ccccc1Nc1nc(N)nc(CSc2nnnn2-c2ccccc2)n1`, inactive: > 76.9 µM.
Next, `O=C(NCC1CCCO1)C(C(=O)c1ccccc1)n1ccccc1=O` (stereo not given): inactive: > 76.9 µM.
Regarding `CCOC(=O)C1=C(C)NC(=O)NC1c1ccc(F)cc1` (stereo not given), the Potency is inactive: > 76.9 µM.
`CCOc1ccccc1NC(=O)CCCc1nc2ccccc2c(=O)[nH]1`: the Potency was inactive: > 76.9 µM.
`CCOc1ccc2[nH]c(=O)c(CN(Cc3ccc(F)cc3)C(=O)c3ccco3)cc2c1`: the Potency was inactive: > 76.9 µM.
For the compound `CCOc1cc(C)c(Cl)cc1S(=O)(=O)NCC1CCCO1` (stereo not given), the Potency is inactive: > 76.9 µM.
With `Cc1cccc(-n2ccnc2SCC(=O)Nc2nccs2)c1` the figure was inactive: > 76.9 µM.
In the case of `COc1ccc(C2C(C(=O)N3CCN(c4ccc(OC)cc4)CC3)c3ccccc3C(=O)N2C)cc1` (stereo not given), the Potency is inactive: > 76.9 µM.
For `CCOC(=O)CNC(=O)C(Cc1ccccc1)NS(=O)(=O)c1cccs1` (stereo not given), the Potency was inactive: > 76.9 µM.
For `O=C1CC(N2CCOCC2)C(=O)N1c1ccc2c(c1)OCO2` (stereo not given), the Potency is inactive: > 76.9 µM.
Take `Cn1c(Oc2ccccc2NCc2cc(Br)ccc2O)cc(=O)n(C)c1=O`: the Potency was inactive: > 76.9 µM.
